Results reported in PubChem BioAssay AID504832 (National Center for Advancing Translational Sciences (NCATS), 2011).
In all, about 310,000 compounds went through this assay and about 18,000 (5.8%) were called active. Inconclusive results, whose numbers are uncertain, are shown with a selection of clear calls. Calls come from the whole dose curve; as a rule, active = well fitted inhibition curve with a large enough effect; inconclusive = small, poorly fitted or top-dose-only effect, or another doubt; inactive = no such curve, though single readings can be large or run the other way. No potency is given beside an inconclusive call; the fits are too rough.

Test: Primary qHTS for delayed death inhibitors of the malarial parasite plastid, 48 hour incubation
Conditions: P. falciparum luciferase growth in erythrocytes; series mostly up to 28.7 µM
In short: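 Cell-based growth assay: transgenic P. falciparum expressing firefly luciferase, cultured in red cells within RPMI 1640 containing 0.5% w/v Albumax, 24 mM bicarbonate and gentamycin. A drop in luciferase activity indicates inhibition.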
Potency is the fitted concentration of half-maximal effect; tags give direction and shape of the fitted curve.

| SMILES | Potency |
| --- | --- |
| CC(C)(C)c1cc(NC(=O)NN2CCOCC2)nn1-c1c(Cl)cc(Cl)cc1Cl | active: 10.4 µM |
| O=C(NCCCN1CCCC1=O)c1c(O)nc2sccn2c1=O | inconclusive [inhibitor, single point] |
| Cc1ccc2c(c1)C(c1ccncc1)=NNC(c1ccc(C(C)C)cc1)=N2 | inconclusive [inhibitor, partial curve, poor fit] |
| COc1ccc(S(=O)(=O)N2CCC3(CC2)OCCN3S(=O)(=O)c2cccs2)cc1 | inconclusive [inhibitor, partial curve, poor fit] |
| CC(=O)Nc1ccc(NC(=O)CSc2nc(=O)n3cccc(C)c3n2)cc1 | inactive |
| CCOC(=O)Cn1c(=O)n(Cc2ccc(OC)cc2)c(=O)c2cccnc21 | inconclusive [inhibitor, partial curve, poor fit] |
| COc1ccc(C)cc1N(CC(=O)N1CCCCCC1)S(=O)(=O)c1ccccc1 | inconclusive [inhibitor, partial curve, poor fit] |
| COc1ccc(Cl)cc1C(=O)NCC(c1ccco1)N1CCCC1 (centres undefined) | inconclusive [inhibitor, single point] |
| CCCCn1c(SCC(=O)NC(C)(C)C)nnc1-c1ccco1 | inactive |
| CCNS(=O)(=O)c1ccc(NC(=O)c2ccc(Cn3cc([N+](=O)[O-])cn3)o2)cc1 | inconclusive [inhibitor, single point] |
| C[C@H](NS(=O)(=O)c1ccc2c(c1)OCCCO2)C(=O)N1CCN(Cc2ccccc2)CC1 | inconclusive [inhibitor, single point] |
| O=c1cc(C(F)(F)F)nc(-c2ccccc2)[nH]1 | inactive |
| O=C(CCN1CCN(C(c2ccccc2)c2ccccc2)CC1)N/N=C/c1ccc(O)cc1 | inconclusive [inhibitor, single point] |
| Cc1c(Nc2nc3ccccc3nc2N2CCN(c3ccccc3)CC2)c(=O)n(-c2ccccc2)n1C | inconclusive [inhibitor, partial curve, poor fit] |
| O=C(Nc1ccc(C(F)(F)F)cc1)C1CCN(S(=O)(=O)c2ccc(N3CCCC3=O)cc2)CC1 | inconclusive [inhibitor, full curve, poor fit] |
| CCNC(=O)N1CCCC(C(=O)c2ccc(C(F)(F)F)cc2)C1 (centres undefined) | inconclusive [inhibitor, partial curve, poor fit] |
| COc1cccc(C2CC(c3cccs3)=NN2C(=O)c2ccco2)c1O (centres undefined) | inconclusive [inhibitor, single point] |
| CN(C(=O)C1CCCN1S(=O)(=O)c1ccc(Cl)cc1)c1ccccc1 (centres undefined) | inconclusive [inhibitor, single point] |
| O=C(Nc1ccc(Oc2ccccc2)nc1)C1CCN(Cc2cccc(F)c2)CC1 | inconclusive [inhibitor, partial curve] |
| O=S1(=O)C=C(Sc2nc3cc(Cl)ccc3o2)c2ccccc21 | inconclusive [inhibitor, single point] |
| COc1ccc(OC)c(-n2c(-c3cc(-c4ccc(F)cc4)n[nH]3)n[nH]c2=S)c1 | inconclusive [inhibitor, partial curve, poor fit] |
| Cc1sc2ncnc(SCC(=O)NC(=O)c3cccn3C)c2c1C | inactive |

| SMILES | Potency |
| --- | --- |
| CSc1ccccc1C(=O)Nc1ccc(S(=O)(=O)NC2=NCCCCC2)cc1 | inconclusive [inhibitor, single point] |
| CCOC(=O)C1C(=O)C=C(c2ccc(C)cc2)CC1c1cccc([N+](=O)[O-])c1 (centres undefined) | inconclusive [inhibitor, single point] |
| NC(=O)c1c(NC(=O)C(=O)N2CCOCC2)sc2c1CCCC2 | inconclusive [inhibitor, partial curve] |
| CCOc1ccccc1NC(=O)CSc1nnc2c(CC)c(C)nc(N)n12 | inactive |
| O=C(Nc1cccc(S(=O)(=O)N2CCCCCC2)c1)c1cc(=O)c2ccccc2o1 | inconclusive [inhibitor, single point] |
| CCc1cccc2c(C(=O)CN3C(=O)N(C)C4(CCCCC4)C3=O)c[nH]c12 | inconclusive [inhibitor, single point] |
| COc1ccc(S(=O)(=O)N2CCN(C(=O)c3cc(-c4ccc(Br)cc4)n[nH]3)CC2)cc1OC | active: 9.28 µM |
| CCCCC(=O)Nc1cc(C)c(NC(=O)c2cccs2)cn1 | inactive |
| COC(=O)c1ccc(NC(=O)N(c2ccccc2)c2ccccc2)cc1 | inactive |
| Cc1cccc(NS(=O)(=O)c2cccc(C(=O)N3CCN(c4ccccn4)CC3)c2)c1 | inconclusive [inhibitor, single point] |
| c1ccc(CSc2nc3ccccc3[nH]2)cc1 | inactive |
| CN(c1ccccc1C(=O)NCc1ccccn1)S(C)(=O)=O | active: 14.7 µM |
| COc1cccc(C2C(C(=O)OC(C)C)=C(C)N=c3s/c(=C\c4ccc(C(=O)O)cc4)c(=O)n32)c1 (centres undefined) | inconclusive [inhibitor, partial curve, poor fit] |
| Cc1cccc(Oc2ccccc2NC(=O)CSCC(=O)Nc2cc(C)on2)c1 | inconclusive [inhibitor, partial curve] |
| COc1ccc(CNC(=O)CCn2c(=O)[nH]c3ccccc3c2=O)cc1 | inactive |
| COc1cccc(CNC(=O)C2=C(C)C(=O)OC23CCC(C)CC3)c1 (centres undefined) | inconclusive [inhibitor, full curve, poor fit] |
| CN(C)S(=O)(=O)N(CC(=O)Nc1ccccc1C(F)(F)F)c1ccccc1 | inconclusive [inhibitor, partial curve, poor fit] |
| O=C(C[n+]1ccccc1)N/N=C/c1ccc(C(=O)O)cc1 | inactive |
| O=C(CSc1nc2ccccc2c(=O)n1-c1ccccc1)c1c[nH]c2ccccc12 | inconclusive [inhibitor, single point] |
| O=C(CCc1ccccc1)NC1(Cc2ccccc2)CCN(CCc2cccs2)C1=O (centres undefined) | inconclusive [inhibitor, single point] |
| Cc1ccc(SCC(=O)NNC(=O)C2CCCCC2)cc1 | inconclusive [inhibitor, single point] |
| COc1ccccc1N1CCN(S(=O)(=O)c2c(C)ccc3nsnc23)CC1 | inconclusive [inhibitor, partial curve] |

| SMILES | Potency |
| --- | --- |
| COc1ccc(C2C(C(=O)N3CCOCC3)CCC(=O)N2c2cc(OC)c(OC)c(OC)c2)cc1 (centres undefined) | inactive |
| CCOc1ccc2[nH]c(=O)c(C(c3nnnn3CCOC)N3CCOCC3)cc2c1 (centres undefined) | inactive |
| CCOC(=O)C(C)N1C(=O)S/C(=C/c2cc(C)n(-c3ccncc3)c2C)C1=O (centres undefined) | inconclusive [inhibitor, single point] |
| COC(=O)C(CC(C)C)NC(=O)C(N)Cc1ccccc1 (centres undefined) | inactive |
| CC(C)(C)N(NC(=O)c1ccccc1)C(=O)c1cccc(C(=O)N(NC(=O)c2ccccc2)C(C)(C)C)c1 | inconclusive [inhibitor, partial curve] |
| CCOc1cc(CNCCN2CCOCC2)ccc1OCc1ccccc1Cl | inconclusive [inhibitor, single point] |
| COc1ccccc1NCC(O)Cn1c2ccccc2c2ccccc21 (centres undefined) | inconclusive [inhibitor, single point] |
| CC(C)n1cc(CN2CCCC(C(=O)Nc3cccc(-c4cc5ccccc5[nH]4)c3)C2)cn1 (centres undefined) | inconclusive [inhibitor, full curve] |
| CCCN(CC(=O)Nc1ccccc1Br)CC(=O)Nc1ccc(F)c(F)c1F | inconclusive [inhibitor, single point] |
| COc1cc(NC(=S)N2CCN(c3ccccn3)CC2)c(OC)cc1Cl | inconclusive [inhibitor, partial curve, poor fit] |
| COc1ccccc1OCCn1c(C)c(C=O)c2ccccc21 | inconclusive [inhibitor, single point] |
| S=C(Nc1ccc(Br)cc1Cl)NC1CCN(Cc2ccccc2)CC1 | inconclusive [inhibitor, single point] |
| COC(=O)[C@@H]1C[C@@H]2CC[C@@H](O)C[C@@H]2N1Cc1ccc(C(F)(F)F)cc1 | inconclusive [inhibitor, single point] |
| CCC1=C(OC(=O)N(CC)CC)N2C(=O)OC(=NCCOC)[C@]2(Cc2ccccc2)[C@H]2C1=CC[C@H]1C(=O)N(C)C(=O)[C@H]12 | active: 10.4 µM |
| CC(=O)N1c2ccc(S(=O)(=O)N3c4ccccc4CC3C)cc2CC1C (centres undefined) | inconclusive [inhibitor, single point] |
| CCOc1ccc(NC(=O)CSc2nncc(=O)[nH]2)cc1 | inconclusive [inhibitor, full curve] |
| Cc1ccc(C)c(C(=O)COC(=O)c2ccc(C)c(S(=O)(=O)N3CCOCC3)c2)c1 | inconclusive [inhibitor, single point] |
| Cc1ccccc1CN1CCN(C(=O)c2cccc3ccccc23)CC1 | active: 11.7 µM |
| COc1ccccc1Nc1nc(-c2sc(NC(=O)c3ccc([N+](=O)[O-])cc3)nc2C)cs1 | inconclusive [inhibitor, single point] |
| O=P(c1ccccc1)(c1ccccc1)c1nc(-c2ccccc2)oc1NCc1ccccc1 | active: 5.86 µM |
